Measured values published in PubChem BioAssay (NCATS).
Several values for one entry are separate records, joined by “and”; a condition that tells them apart may be missing. Equal entries are not always repeated. The inconclusive results got no clear call from the source; some entries with a clear call stand among them for comparison. For part of these data: Potencies of inconclusive entries are doubtful fits and often do not repeat. Activity calls are given as the source filed them. Calls follow the shape of the dose curve; as a rule, active = well fitted curve in the direction sought with a large enough effect; inconclusive = small, poorly fitted or top-dose-only effect, or another doubt; inactive = no such curve, though single readings can be large; an effect the other way counts as inactive or inconclusive.

Columns and labels:
[1] = Viability qHTS for spleen associated tyrosine kinase inhibitor (SYKi) naive MV4-11 cells (AID 1963823); conditions: MV4-11 AML viability, CellTiter-Glo luminescence, 72 h; series mostly up to 45 µM; also: nearly all actives have a fitted effect of over 40% in size
In short: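 Read-out: CellTiter-Glo luminescence. Exposure: 72 hr, 37 C, 5% CO2, 95% humidity. Cells: MV4-11 without SYK inhibitor history, 500/well, qHTS format.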

[2] = Quantitative highthroughput screen to assess conditional lethalithy of NOMO1 cells grown in RPMI1640 with untreated serum (RPMI+s) (AID 1963876); conditions: NOMO1 AML cells in RPMI+serum, CellTiter-Glo viability, 48 h; viability: at 45.8 µM (top of the series); also: nearly all actives have a fitted effect of over 35% in size
In short: (§1)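 Each medium arm—HPLM with 10% dialyzed FBS, or RPMI1640 with 5 mM glucose and 10% untreated or dialyzed FBS—was screened against an 11-point, 3-fold compound titration for 48 h at 37 °C, with CellTiter-Glo luminescence as endpoint.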

[3] = Quantitative highthroughput screen to assess conditional lethalithy of NOMO1 cells grown in RPMI1640 with dialyzed fetal bovine serum (RPMI+ds) (AID 1963877); also: nearly all actives have a fitted effect of over 30% in size
In short: as §1

[4] = Quantitative highthroughput screen to assess conditional lethalithy of NOMO1 cells grown in Human Plasma-Like Medium with dialyzed fetal bovine serum (HPLM+ds) (AID 1963878); conditions: NOMO1 AML cells in HPLM+ds, CellTiter-Glo viability, 48 h; viability: at 45.8 µM (top of the series); also: nearly all actives have a fitted effect of over 35% in size
In short: as §1

[5] = Quantitative highthroughput screen to assess conditional lethalithy of P12 Ichikawa cells grown in RPMI1640 with dialyzed fetal bovine serum (RPMI+ds) (AID 1963880); conditions: Potency: P12-Ichikawa viability; also: nearly all actives have a fitted effect of over 35% in size
In short: as §1

[6] = Quantitative highthroughput screen to assess conditional lethalithy of P12 Ichikawa cells grown in RPMI1640 with untreated serum (RPMI+s) (AID 1963881); conditions: Potency: viability; also: nearly all actives have a fitted effect of over 35% in size
In short: as §1

[7] = Quantitative highthroughput screen to assess conditional lethalithy of SEM cells grown in RPMI1640 with dialyzed fetal bovine serum (RPMI+ds) (AID 1963884); conditions: SEM B-ALL cells, RPMI+dialyzed FBS, CellTiter-Glo viability, 48 h; viability: at 45.8 µM (top of the series); also: nearly all actives have a fitted effect of over 35% in size
In short: as §1

[8] = Cellular viability qHTS for adrenocortical cancer (ACC) cell line SW-13 (AID 1963989); conditions: SW-13 ACC cells viability, CellTiter-Glo, 48 h; activity (max response): hits give low values; also: nearly all actives have a fitted effect of over 65% in size
In short: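 SW-13 cells in ITS-supplemented serum-free DMEM were plated overnight, then exposed for 48 h at 37C to compound titrations (up to 46 uM final). Viability was read by CellTiter-Glo luminescence; four-parameter logistic fits gave IC50 and efficacy.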

[9] = Cellular viability qHTS for adrenocortical cancer (ACC) cell line NCI-H295R (AID 1963990); conditions: CellTiter-Glo ATP luminescence, 48 h; series mostly up to 46.1 µM; also: nearly all actives have a fitted effect of over 60% in size
In short: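 Luminescent ATP read-out (CellTiter-Glo, 20 min RT) after 48 h drug exposure of NCI-H295R cells; a titration up to 46 uM final. Data normalized to doxorubicin (100% inhibition) and DMSO (0%); 4-parameter fit gives IC50, max response.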

[10] = Quantitative highthroughput screen to assess conditional lethalithy of SEM cells grown in Human Plasma-Like Medium with dialyzed fetal bovine serum (HPLM+ds) (AID 1963882); also: nearly all actives have a fitted effect of over 35% in size
In short: as §1

[11] = Quantitative highthroughput screen to assess conditional lethalithy of SEM cells grown in RPMI1640 with unreated serum (RPMI+s) (AID 1963883); conditions: SEM B-ALL cells, CellTiter-Glo viability, 48 h; viability: at 45.8 µM (top of the series); also: nearly all actives have a fitted effect of over 35% in size
In short: as §1
Potency is read from the fitted curve at half-maximal effect; tags tell the direction and shape of the fitted curve.

Row | SMILES | Potency [1] | Potency [2] | Potency [3] | Potency [4] | Potency [5] | Potency [6] | Potency [7] | Potency [8] | Potency [9] | Potency [10] | Potency [11]
1 | O=C(O)C1(Cc2cccc(Nc3nccs3)n2)CCC(Oc2cccc(Cl)c2F)CC1 (stereo not drawn) | inconclusive: 525 nM [cytotoxic, full curve] | inconclusive: 3720 nM [cytotoxic, full curve] | inconclusive: 2960 nM [cytotoxic, full curve] | inconclusive: 1660 nM [cytotoxic, full curve] | inconclusive: 2960 nM [cytotoxic, full curve] | active: 2640 nM | inconclusive: 3320 nM [cytotoxic, full curve] | inconclusive: 282 nM [cytotoxic, full curve, poor fit] | inconclusive: 282 nM [cytotoxic, full curve, poor fit] |  | 
2 | CCCOc1ccc2nc(NC(=O)OC)[nH]c2c1 | inconclusive: 164 nM [cytotoxic, full curve] and inconclusive: 211 nM [cytotoxic, full curve, poor fit] | inconclusive: 93.5 nM [cytotoxic, full curve] | inconclusive: 83.3 nM [cytotoxic, full curve] | inconclusive: 46.9 nM [cytotoxic, full curve] | inconclusive: 37.2 nM [cytotoxic, full curve] |  |  | inconclusive: 29100 nM [cytotoxic, single point] | inconclusive: 14600 nM [cytotoxic, partial curve, poor fit] | inconclusive: 29.6 nM [cytotoxic, full curve] | active: 14.8 nM
